# According to PMC9352726 (Nature Communications, 2022):
# These are yes or no findings as the source states them, for the method shown. For part of these data: Binding seen in cells or lysates may run through a third protein. Some binding calls cover weakened binding; strength is not graded here. For part of these data: Tags and fused reporters may be left off the sequences shown.
# Molecular target: FLAG-tagged YP_3417 (Yersinia pestis)
# Assay: co-IP; […] (25 mM Tris-HCl pH 7.6, 150 mM NaCl, 0.5% Triton X-100); […]
row,Binder,binding
1,"Myc-tagged human guanylate-binding protein 1 (hGBP1) (protein, UniProt P32455 1-592) MASEIHMTGPMCLIENTNGRLMANPEALKILSAITQPMVVVAIVGLYRTGKSYLMNKLAGKKKGFSLGSTVQSHTKGIWMWCVPHPKKPGHILVLLDTEGLGDVEKGDNQNDSWIFALAVLLSSTFVYNSIGTINQQAMDQLYYVTELTHRIRSKSSPDENENEVEDSADFVSFFPDFVWTLRDFSLDLEADGQPLTPDEYLTYSLKLKKGTSQKDETFNLPRLCIRKFFPKKKCFVFDRPVHRRKLAQLEKLQDEELDPEFVQQVADFCSYIFSNSKTKTLSGGIQVNGPRLESLVLTYVNAISSGDLPCMENAVLALAQIENSAAVQKAIAHYEQQMGQKVQLPTETLQELLDLHRDSEREAIEVFIRSSFKDVDHLFQKELAAQLEKKRDDFCKQNQEASSDRCSALLQVIFSPLEEEVKAGIYSKPGGYRLFVQKLQDLKKKYYEEPRKGIQAEEILQTYLKSKESMTDAILQTDQTLTEKEKEIEVERVKAESAQASAKMLQEMQRKNEQMMEQKERSYQEHLKQLTEKMENDRVQLLKEQERTLALKLQEQEQLLKEGFQKESRIMKNEIQDLQTKMRRRKACTIS",binds
2,"Myc-tagged human guanylate-binding protein 2 (hGBP2) (protein, UniProt P32456 1-591) MAPEINLPGPMSLIDNTKGQLVVNPEALKILSAITQPVVVVAIVGLYRTGKSYLMNKLAGKKNGFSLGSTVKSHTKGIWMWCVPHPKKPEHTLVLLDTEGLGDIEKGDNENDSWIFALAILLSSTFVYNSMGTINQQAMDQLHYVTELTDRIKANSSPGNNSVDDSADFVSFFPAFVWTLRDFTLELEVDGEPITADDYLELSLKLRKGTDKKSKSFNDPRLCIRKFFPKRKCFVFDWPAPKKYLAHLEQLKEEELNPDFIEQVAEFCSYILSHSNVKTLSGGIPVNGPRLESLVLTYVNAISSGDLPCMENAVLALAQIENSAAVEKAIAHYEQQMGQKVQLPTETLQELLDLHRDSEREAIEVFMKNSFKDVDQMFQRKLGAQLEARRDDFCKQNSKASSDCCMALLQDIFGPLEEDVKQGTFSKPGGYRLFTQKLQELKNKYYQVPRKGIQAKEVLKKYLESKEDVADALLQTDQSLSEKEKAIEVERIKAESAEAAKKMLEEIQKKNEEMMEQKEKSYQEHVKQLTEKMERDRAQLMAEQEKTLALKLQEQERLLKEGFENESKRLQKDIWDIQMRSKSLEPICNIL",binds
3,"Myc-tagged human guanylate-binding protein 5 (hGBP5) (protein, UniProt Q96PP8 1-586) MALEIHMSDPMCLIENFNEQLKVNQEALEILSAITQPVVVVAIVGLYRTGKSYLMNKLAGKNKGFSVASTVQSHTKGIWIWCVPHPNWPNHTLVLLDTEGLGDVEKADNKNDIQIFALALLLSSTFVYNTVNKIDQGAIDLLHNVTELTDLLKARNSPDLDRVEDPADSASFFPDLVWTLRDFCLGLEIDGQLVTPDEYLENSLRPKQGSDQRVQNFNLPRLCIQKFFPKKKCFIFDLPAHQKKLAQLETLPDDELEPEFVQQVTEFCSYIFSHSMTKTLPGGIMVNGSRLKNLVLTYVNAISSGDLPCIENAVLALAQRENSAAVQKAIAHYDQQMGQKVQLPMETLQELLDLHRTSEREAIEVFMKNSFKDVDQSFQKELETLLDAKQNDICKRNLEASSDYCSALLKDIFGPLEEAVKQGIYSKPGGHNLFIQKTEELKAKYYREPRKGIQAEEVLQKYLKSKESVSHAILQTDQALTETEKKKKEAQVKAEAEKAEAQRLAAIQRQNEQMMQERERLHQEQVRQMEIAKQNWLAEQQKMQEQQMQEQAAQLSTTFQAQNRSLLSELQHAQRTVNNDDPCVLL",binds
4,"Myc-tagged human guanylate-binding protein 6 (hGBP6) (protein, UniProt Q6ZN66 1-633) MESGPKMLAPVCLVENNNEQLLVNQQAIQILEKISQPVVVVAIVGLYRTGKSYLMNHLAGQNHGFPLGSTVQSETKGIWMWCVPHPSKPNHTLVLLDTEGLGDVEKGDPKNDSWIFALAVLLCSTFVYNSMSTINHQALEQLHYVTELTELIKAKSSPRPDGVEDSTEFVSFFPDFLWTVRDFTLELKLNGHPITEDEYLENALKLIQGNNPRVQTSNFPRECIRRFFPKRKCFVFDRPTNDKDLLANIEKVSEKQLDPKFQEQTNIFCSYIFTHARTKTLREGITVTGNRLGTLAVTYVEAINSGAVPCLENAVITLAQRENSAAVQRAADYYSQQMAQRVKLPTDTLQELLDMHAACEREAIAIFMEHSFKDENQEFQKKFMETTMNKKGDFLLQNEESSVQYCQAKLNELSKGLMESISAGSFSVPGGHKLYMETKERIEQDYWQVPRKGVKAKEVFQRFLESQMVIEESILQSDKALTDREKAVAVDRAKKEAAEKEQELLKQKLQEQQQQMEAQDKSRKENIAQLKEKLQMEREHLLREQIMMLEHTQKVQNDWLHEGFKKKYEEMNAEISQFKRMIDTTKNDDTPWIARTLDNLADELTAILSAPAKLIGHGVKGVSSLFKKHKLPF",binds

# Molecular target: purified recombinant YP_3417, full length (Yersinia pestis)
# Assay: SPR; Biacore T200; […] (0–20 μM) […] (20 mM HEPES pH 7.4, 150 mM NaCl, 3.4 mM EDTA, 0.005% P20); 25 °C; both purified
row,Binder,binding
1,"purified recombinant human guanylate-binding protein 1 (hGBP1) (natural protein, UniProt P32455 1-592, looked up, also called pSUMO-hGBP1) MASEIHMTGPMCLIENTNGRLMANPEALKILSAITQPMVVVAIVGLYRTGKSYLMNKLAGKKKGFSLGSTVQSHTKGIWMWCVPHPKKPGHILVLLDTEGLGDVEKGDNQNDSWIFALAVLLSSTFVYNSIGTINQQAMDQLYYVTELTHRIRSKSSPDENENEVEDSADFVSFFPDFVWTLRDFSLDLEADGQPLTPDEYLTYSLKLKKGTSQKDETFNLPRLCIRKFFPKKKCFVFDRPVHRRKLAQLEKLQDEELDPEFVQQVADFCSYIFSNSKTKTLSGGIQVNGPRLESLVLTYVNAISSGDLPCMENAVLALAQIENSAAVQKAIAHYEQQMGQKVQLPTETLQELLDLHRDSEREAIEVFIRSSFKDVDHLFQKELAAQLEKKRDDFCKQNQEASSDRCSALLQVIFSPLEEEVKAGIYSKPGGYRLFVQKLQDLKKKYYEEPRKGIQAEEILQTYLKSKESMTDAILQTDQTLTEKEKEIEVERVKAESAQASAKMLQEMQRKNEQMMEQKERSYQEHLKQLTEKMENDRVQLLKEQERTLALKLQEQEQLLKEGFQKESRIMKNEIQDLQTKMRRRKACTIS",binds
2,"human guanylate-binding protein 4 (hGBP4) used in SPR (protein, UniProt Q96PP9 1-640) MGERTLHAAVPTPGYPESESIMMAPICLVENQEEQLTVNSKALEILDKISQPVVVVAIVGLYRTGKSYLMNRLAGKRNGFPLGSTVQSETKGIWMWCVPHLSKPNHTLVLLDTEGLGDVEKSNPKNDSWIFALAVLLSSSFVYNSVSTINHQALEQLHYVTELAELIRAKSCPRPDEAEDSSEFASFFPDFIWTVRDFTLELKLDGNPITEDEYLENALKLIPGKNPKIQNSNMPRECIRHFFRKRKCFVFDRPTNDKQYLNHMDEVPEENLERHFLMQSDNFCSYIFTHAKTKTLREGIIVTGKRLGTLVVTYVDAINSGAVPCLENAVTALAQLENPAAVQRAADHYSQQMAQQLRLPTDTLQELLDVHAACEREAIAVFMEHSFKDENHEFQKKLVDTIEKKKGDFVLQNEEASAKYCQAELKRLSEHLTESILRGIFSVPGGHNLYLEEKKQVEWDYKLVPRKGVKANEVLQNFLQSQVVVEESILQSDKALTAGEKAIAAERAMKEAAEKEQELLREKQKEQQQMMEAQERSFQEYMAQMEKKLEEERENLLREHERLLKHKLKVQEEMLKEEFQKKSEQLNKEINQLKEKIESTKNEQLRLLKILDMASNIMIVTLPGASKLLGVGTKYLGSRI",no binding
